Consider 81 compounds from ChEMBL document CHEMBL1201862, “PubChem BioAssay data set” (2004).

The structures appear in SMILES notation.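 Dose response: 5 concentrations. Exposure: 48 h. Format: 96-well plates. Endpoint: linear interpolation; highest concentration if not reached. GI50 is the concentration that inhibits growth by half.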 Calls of active or inactive are those of the source. Rule as the data show it: active = GI50 up to about 1.1 µM and inactive = higher. Where only a bound is given, the exact number is not on record here.

This experiment has as its system NCI-H322M. As to the kind of experiment: DTP human tumour cell line panel, 48 h.
What is called GI50 is the concentration that inhibits growth by half. With `O=C(O)c1ccc(CI)cc1`, the GI50 is inactive: 33 µM.
In the case of `NC(CC(=O)Nc1cc(C(F)(F)F)ccc1Cl)=NO`, the GI50 is inactive: > 100 µM.
Turning to `S=C1NCN2CCN(CC2)CNC(=S)C(=S)NCN2CCN(CC2)CNC1=S`, the GI50 was inactive: 56.8 µM.
The same measure for `Cc1cccc2cc3ccc4ccccc4c3cc12`: inactive: 70.1 µM; for `CCN(CC)C1Oc2cc3c(cc2C(c2cccc(OC)c2O)C1C)OCO3` (stereo unspecified): inactive: 4.88 µM; for `O=C1NC(c2cccc(OCc3ccccc3)c2)Nc2ccccc21` (stereo unspecified): active: 0.847 µM.
Consider `CCOC(=O)CCC(NC(=O)c1ccc(Nc2nc3ccccc3nc2C(=O)OCC)cc1)C(=O)OCC` (stereo unspecified), for which the GI50 was inactive: 14.3 µM.
In the case of `CSc1csc(-c2ccc(-c3ccc(-c4cc(SC)cs4)s3)s2)c1`, the GI50 is inactive: > 100 µM.
The same measure for `CC(C)CCC[C@@H](C)[C@H]1CC[C@H]2[C@@H]3CC=C4CC(OCCCCN(O)CCCSC5OC(CO)C(O)C(O)C5O)CC[C@]4(C)[C@H]3CC[C@]12C` (stereo partly specified): inactive: 71.3 µM.
The same measure for `Clc1ccc(CCNC2(c3cc4ccccc4s3)CCCCC2)cc1Cl`: inactive: 42.7 µM.
`COC(=O)[C@H]1[C@H](C(=O)OC)[C@@H](C)c2c(ccc3c2[nH]c2ccccc23)[C@@H]1C`: the GI50 is inactive: > 100 µM.
`S=C(Nc1cccc(C2(N3CCCCC3)CCCCC2)c1)Nc1cccc(C2(N3CCCCC3)CCCCC2)c1`: the GI50 is inactive: 31.9 µM.
As for `O=C1OC2(C(F)(F)F)Oc3ccccc3CN2C12CCCCC2` (stereo unspecified), the figure is inactive: 40.3 µM.
Regarding `CCOC(=O)C1=C(Nc2cccc3ccccc23)OCC1=O`, the GI50 was inactive: > 100 µM.
Consider `O=C(Nc1ccc(Cl)cc1)Oc1ccc(C(=S)Nc2ccc(Br)cc2)cc1`, for which the GI50 was inactive: 12.3 µM.
For `CN1NC2(CCCCC2)ON=C1c1ccccc1`, the GI50 is inactive: > 100 µM.
As for `Cc1ccc(S(=O)(=O)N(CCN2C(=O)c3ccccc3C2=O)c2cc3c4c(c2)Oc2cc(N(CCN5C(=O)c6ccccc6C5=O)S(=O)(=O)c5ccc(C)cc5)cc5c2C4(C)c2c(cc(N(CCN4C(=O)c6ccccc6C4=O)S(=O)(=O)c4ccc(C)cc4)cc2O5)O3)cc1`, the GI50 was inactive: 69.8 µM.
As for `O=c1ss/c(=N\c2ccccc2)n1-c1ccccc1`, the figure is inactive: > 100 µM; as for `CC(=O)c1cccc(NCn2nnc3ccccc32)c1`, inactive: > 100 µM; as for `CCOC(=O)[C@@]12C(C)=CC(=O)O[C@]1(C)C[C@H]2C#N`, inactive: 35.1 µM.
For `O=C1c2cccc3cc([N+](=O)[O-])cc(c23)C(=O)N1CCNCCNCCNCCN1C(=O)c2cccc3cc([N+](=O)[O-])cc(c23)C1=O`, the GI50 is active: 0.0074 µM.
With `NC(=O)C1Cc2cc3c(cc21)OCO3` (stereo unspecified), the GI50 was inactive: > 100 µM.
`CCCCCCCC1C(C)c2c([nH]c3ccccc23)C2C(=O)N(c3ccc(OC)cc3)C(=O)C21` (stereo unspecified): the GI50 is inactive: 3.13 µM.
The same measure for `COC(C(O)CO)C(O)C(O)C(=O)NNc1ccccc1` (stereo unspecified): inactive: 42.9 µM; for `CCO/C=C1\SC(=S)N(c2ccc(OCC)cc2)C1=O`: inactive: > 100 µM.
`OC/C=C/[C@H](OCc1ccccc1)[C@H](/C=C/CO)OCc1ccccc1`: the GI50 was inactive: 69.2 µM.
For `O=C1c2cc([N+](=O)[O-])cnc2S(=O)(=O)N1c1ccc(Br)cc1`, the GI50 was inactive: > 100 µM.
In the case of `Nc1ncnc2c1ncn2C1OC(CSCc2ccc(Cl)cc2)C(O)C1O` (stereo unspecified), the GI50 was inactive: > 100 µM.
Consider `Cc1cc(=O)oc2c(C3=NN(C=O)C(c4ccccc4)C3)c(O)ccc12` (stereo unspecified), for which the GI50 is inactive: > 77.4 µM.
The same measure for `CC(C(=O)O)c1cnn(-c2ccccc2)c1-n1cccc1` (stereo unspecified): inactive: > 100 µM; for `CCOC(=O)c1cc(Br)c(-c2onc(C)c2Br)n1C`: inactive: > 100 µM.
On to `COc1ccc(C(=C[N+](=O)[O-])c2ccc(OC)cc2)cc1`, for which the GI50 was inactive: 28.2 µM.
As for `O=S1(=O)COc2ccccc2-c2ncncc21`, the GI50 is inactive: > 100 µM.
As for `C[C@]12CC[C@H](O)C=C1CC[C@@H]1[C@@H]2CC[C@]2(C)C(c3ccc(=O)oc3)CC[C@]12O` (stereo partly specified), the figure is active: 0.0162 µM; as for `COc1cc2c(cc1OC)CCc1cc(OC)c(OC)cc1CC2`, inactive: > 100 µM; as for `CC1CC(=O)Nc2ccc(/N=N/N(C)C)cc2N1C=O` (stereo unspecified), inactive: > 100 µM.
For `c1cnn(C23C4C5C6C4C2C6C53)c1` (stereo unspecified), the GI50 is inactive: > 100 µM.
For the compound `CSc1c(C(=O)Nc2ccc(C)cc2)c(N)nn1-c1ccccc1`, the GI50 is inactive: 88.9 µM.
For `CC1=C(C(=O)CC(=O)C(=O)Nc2cccc(C)c2C)Sc2ccccc2N1`, the GI50 was inactive: > 100 µM.
For the compound `Cc1ccc(-c2cc(-c3ccc(Cl)cc3)nc(/N=C3\C(=O)N(CN(C)C)c4ccccc43)n2)cc1`, the GI50 was inactive: 96.8 µM.
Take `Oc1c(CN2CCOCC2)ccc2cccnc12`: the GI50 was inactive: > 10 µM.
For the compound `CN(C)c1c([O-])c(=[N+](C)C)c1=O`, the GI50 was inactive: > 100 µM.
The same measure for `CCOC(=O)C1C(c2ccc(Br)cc2)N(Cc2ccccc2)C(c2ccc(Br)cc2)C(C(=O)OC)S1(=O)=O` (stereo unspecified): inactive: 61.8 µM; for `CCCCOCc1cc(CN2CCN(C)CC2)c(O)c2ncccc12`: inactive: 19.6 µM; for `CCC(=O)N/N=C(\C=C\c1cccc(O)c1)c1sc(Nc2ccc(C)cc2[N+](=O)[O-])nc1C`: inactive: > 100 µM.
As for `Cc1cc(N2CCCCC2)nc2ccc(Cc3ccc4nc(N5CCCCC5)cc(C)c4c3)cc12`, the GI50 was inactive: > 100 µM.
Consider `Cc1c(C2CCSc3ccccc3N2)sc2ccccc12` (stereo unspecified), for which the GI50 is inactive: > 100 µM.
As for `C[C@@H]1CC[C@@]2(C)C(C(=O)O)=CCCC2[C@@]1(C)CC(=O)c1ccoc1` (stereo partly specified), the figure is inactive: > 25 µM; as for `CC(C)c1ccc(/C=C2\N=C(c3ccc([N+](=O)[O-])cc3)OC2=O)cc1`, inactive: > 100 µM; as for `COC1=C(OC)C(=O)C(Cc2c(C)nc3sccn23)=C(C)C1=O`, inactive: 18.1 µM.
For the compound `CCCCCCCCCCCCCC(=O)O.O=CC(O)C(O)C(OC1OC(CO)C(O)C(O)C1O)C(O)CO` (stereo unspecified), the GI50 is inactive: 41.5 µM.
On to `COCCOCOc1ccc(OCOCCOC)c2c1C(=O)c1ccccc1C2=O`, for which the GI50 is inactive: 67.1 µM.
`c1ccc(/N=C(\N2CCOCC2)N(CCN2CCOCC2)c2ccccc2)cc1`: the GI50 is inactive: > 100 µM.
On to `CC(=O)OC1C2CCC1C1C2C2(Cl)C(Cl)=C(Cl)C1(Cl)C2(Cl)Cl` (stereo unspecified), for which the GI50 is inactive: 20.8 µM.
As for `COC(=O)CCC(NC(=S)N/N=C/c1ccccn1)C(=O)OC` (stereo unspecified), the figure is inactive: > 100 µM.
The same measure for `COc1ccccc1C1=C2C(=O)N(C)C(c3ccccc3OC)=C2C(=O)N1C`: inactive: > 100 µM.
The same measure for `Cc1cc2ccccc2n2c1nc1ccccc12`: inactive: > 100 µM; for `Cc1c2cnccc2c(C)c2c1c1ccccc1n2CCCN`: active: 0.2 µM.
Take `O=C1N/C(=N\N=C\c2ccccc2)C2(CCCCC2)O1`: the GI50 is inactive: 96.2 µM.
In the case of `CC(=O)/C=C/CCC(=O)/C=C/C(=O)OC(CCC(=O)/C=C/C(=O)O)CC(C)=O` (stereo unspecified), the GI50 is inactive: > 100 µM.
On to `COC(=O)C1=C(C(=O)OC)C2(C)CCC(=O)C1O2` (stereo unspecified), for which the GI50 was inactive: > 10 µM.
With `CCOC(=O)C1(C/C=C\CBr)CCCCCCCCCCC1=O` (stereo unspecified), the GI50 was inactive: 17.3 µM.
Take `c1c[nH]c(Cc2nc(Cc3c[nH]cn3)c[nH]2)n1`: the GI50 was inactive: 12.6 µM.
In the case of `CCC(C#N)NC(=O)NC(C#N)CC` (stereo unspecified), the GI50 was inactive: > 100 µM.
For `CC(=O)C(C(=O)C(C)(C)C)C(=O)C(C)(C)C`, the GI50 was inactive: > 100 µM.
In the case of `Oc1c(CNCCCN2CCCC2)cc(Cl)c2cccnc12`, the GI50 was inactive: 6.47 µM.
The same measure for `Cc1nc(-c2ccccc2)cc2c1c(=O)oc1ccccc12`: inactive: > 100 µM; for `CC(=O)Oc1ccc2c3c1[C@@H]1O[C@@H]1c1cccc(c1-3)[C@@H]1O[C@H]21`: inactive: 7.13 µM.
As for `CC(C)=CCN=C(N)N`, the GI50 was inactive: > 100 µM.
Consider `COC(=O)[C@H](Cc1ccccc1)NC(=O)c1ccc(CNC(=O)/C=C/c2csc(-c3ccccc3)n2)cc1`, for which the GI50 is inactive: 11.6 µM.
On to `COCN1COCN/C1=N\C#N`, for which the GI50 was inactive: > 100 µM.
As to `N#CCc1ccc(C(C#N)/C(CCCC(=O)Nc2cccc([N+](=O)[O-])c2)=N\NC(=O)NN)cc1` (stereo unspecified), the GI50 is inactive: > 100 µM.
The same measure for `CC1(C)CC[C@]2(C(=O)O)CC[C@]3(C)C(=CC[C@@H]4[C@@]5(C)CC[C@H](OC6OC(CO)C(O)C(O)C6O)C(C)(C)[C@@H]5CC[C@]43C)[C@@H]2C1` (stereo partly specified): inactive: 1.62 µM.
As to `Cc1cc(C)c2c(=O)n(CN3CC4Nc5ccccc5C4C3)sc2n1` (stereo unspecified), the GI50 is inactive: 71.3 µM.
As to `CC1(C)COC(C2(C)C(=O)C=C(c3ccccc3)c3ccccc32)=N1` (stereo unspecified), the GI50 was inactive: > 100 µM.
`COc1ccc2c(c1OC)C(Br)CCC(Br)(Br)C2=O` (stereo unspecified): the GI50 was inactive: 17.1 µM.
Regarding `COc1ccc(C[C@@H](C(=O)O[C@H](C)[C@H](NC(=O)[C@@H](CC(C)C)N(C)C(=O)C2CCCN2C(=O)[C@H](C)O)C(=O)N2CCCCNC(=O)[C@@H](C)C(=O)[C@H](C(C)C)OC(=O)C[C@H](O)[C@H]2CC(C)C)N(C)C(C)=O)cc1` (stereo partly specified), the GI50 is inactive: 13.3 µM.
Regarding `CC(C)(O)C1CC[C@]2(C)CC[C@]3(C)[C@H](CC[C@@H]4[C@@]5(C)CC[C@H](O)C(C)(C)[C@@H]5CC[C@]43C)[C@@H]12` (stereo partly specified), the GI50 is inactive: 32.1 µM.
As for `Cc1ccc(/N=C2\C(=O)C3=C(OC(C)(C)CC3)c3ccccc32)cc1`, the GI50 is inactive: 1.61 µM.
As to `CN(C)CCNc1ccc2nnn3c4ccccc4c(=O)c1c23`, the GI50 is inactive: 2.81 µM.
For the compound `COc1cc(C2C(Cl)C(=O)N2NC(=O)c2ccccc2O)ccc1O` (stereo unspecified), the GI50 is inactive: > 100 µM.
